In all, about 3,200 compounds went through this assay and about 300 (9.4%) showed activity. The entries are a selection whose mix differs from that of the whole data set.
Test system: A673/TR/shEF
Test: cell viability (LOESS-normalised, relative to median of negative controls) (log2 ratio); higher = more viable cells (less compound effect), active = hit call of the paper (over 3 MAD below the median)
Settings: treatment time: 72 h
Outline: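 Doxycycline, present or absent from 24 h before compounds, was used to induce EWS-FLI1 shRNA knockdown in A673/TR/shEF Ewing sarcoma cells at 1,500 per well in 384-well plates. Cells then received library compounds at two or more concentrations, or DMSO controls, for three days. Viability was measured by CellTiter-Glo luminescence on an Envision reader, and per-plate LOESS correction, division by the negative-control median and log2 transformation followed.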

[1] = 0.25 µM, library screen: screen2, EWS-FLI1 expression: high (no doxycycline)
[2] = 0.25 µM, library screen: screen2, EWS-FLI1 expression: low (doxycycline-induced shRNA knockdown)
[3] = 2.5 µM, library screen: screen2, EWS-FLI1 expression: high (no doxycycline)
[4] = 2.5 µM, library screen: screen2, EWS-FLI1 expression: low (doxycycline-induced shRNA knockdown)
[5] = 0.25 µM, library screen: screen1, EWS-FLI1 expression: high (no doxycycline)
[6] = 0.25 µM, library screen: screen1, EWS-FLI1 expression: low (doxycycline-induced shRNA knockdown)
[7] = 2.5 µM, library screen: screen1, EWS-FLI1 expression: high (no doxycycline)
[8] = 2.5 µM, library screen: screen1, EWS-FLI1 expression: low (doxycycline-induced shRNA knockdown)

Measured: cell viability (log2)

C=C(C)[C@@H]1C2OC(=O)C1[C@]1(O)CC3O[C@]34C(=O)O[C@H]2[C@]14C.CC(C)(O)[C@@H]1C2OC(=O)C1[C@]1(O)C[C@H]3O[C@]34C(=O)O[C@H]2[C@]14C (stereo partly drawn)
inactive: [1] 0.0987 | [2] 0.0228 | [3] 0.079 | [4] 0.0567

CN1[C@@H]2CC[C@H]1CC(OC(=O)C(CO)c1ccccc1)C2 (stereo partly drawn)
inactive: 0.103 µM, library screen: screen3, EWS-FLI1 expression: high (no doxycycline) -0.0138 | 0.103 µM, library screen: screen3, EWS-FLI1 expression: low (doxycycline-induced shRNA knockdown) 0.0399 | [5] 0.0603 | [6] 0.0968 | 0.308 µM, library screen: screen3, EWS-FLI1 expression: high (no doxycycline) -0.021 | 0.308 µM, library screen: screen3, EWS-FLI1 expression: low (doxycycline-induced shRNA knockdown) -0.00749 | 0.926 µM, library screen: screen3, EWS-FLI1 expression: high (no doxycycline) -0.0329 | 0.926 µM, library screen: screen3, EWS-FLI1 expression: low (doxycycline-induced shRNA knockdown) 0.092 | [7] 0.15 | [8] 0.157 | 2.8 µM, library screen: screen3, EWS-FLI1 expression: high (no doxycycline) -0.023 | 2.8 µM, library screen: screen3, EWS-FLI1 expression: low (doxycycline-induced shRNA knockdown) -0.00135 | 8.3 µM, library screen: screen3, EWS-FLI1 expression: high (no doxycycline) -0.0414 | 8.3 µM, library screen: screen3, EWS-FLI1 expression: low (doxycycline-induced shRNA knockdown) -0.0331 | 25 µM, library screen: screen3, EWS-FLI1 expression: high (no doxycycline) -0.025 | 25 µM, library screen: screen3, EWS-FLI1 expression: low (doxycycline-induced shRNA knockdown) 0.0734

CCCN1CCC[C@H](c2cccc(O)c2)C1
inactive: [1] 0.152 | [2] 0.136 | [3] 0.172 | [4] 0.113

C[C@@H](N)[C@@H](O)c1ccccc1
inactive: [5] 0.199 | [6] 0.05 | [7] 0.0838 | [8] 0.0342

C[C@H](Cc1ccc2c(c1)OC(C(=O)O)(C(=O)O)O2)NC[C@H](O)c1cccc(Cl)c1
inactive: [1] 0.294 | [2] 0.0238 | [3] 0.0374 | [4] 0.0367

CCC1(c2ccc(N)cc2)CCC(=O)NC1=O (stereo not drawn)
inactive: [5] 0.0131 | [6] 0.0834 | [1] 0.134 | [2] 0.158 | [7] 0.129 | [8] 0.179 | [3] 0.202 | [4] 0.19

C[N+]1(C)CCN(c2ccccc2)CC1
inactive: [1] 0.217 | [2] 0.0589 | [3] 0.134 | [4] 0.061

N[C@@]1(C(=O)O)CC[C@@H](C(=O)O)C1
inactive: [1] 0.102 | [2] 0.109 | [3] 0.101 | [4] 0.133

CCn1cc(C(=O)O)c(=O)c2cc3c(cc21)OCO3
inactive: [5] 0.0377 | [6] 0.114 | [1] 0.0369 | [2] 0.0537 | [7] 0.08 | [8] 0.14 | [3] 0.0985 | [4] 0.0431

NCCc1ccc(O)cc1
inactive: [5] 0.0239 | [6] 0.0662 | [1] 0.157 | [2] 0.123 | [7] 0.134 | [8] 0.0729 | [3] 0.116 | [4] 0.0531

c1ccc(N=Nc2ccccc2)cc1
inactive: [5] 0.0795 | [6] 0.0179 | [7] 0.0868 | [8] 0.083

— the supplement of paper PMC6089552
